Test results: patent publication US20250263470A1

What was measured:
[1] = molecular target: recombinant HA derived from Yamagata lineage strain B/FLA/06 (B/Florida/4/2006) (influenza B virus B/Florida/4/2006); assay: ELISA on coated recombinant HA, unpurified IgG
[2] = molecular target: recombinant HA derived from Victoria lineage strain B/BNE/08 (B/Brisbane/60/2008) (influenza B virus B/Brisbane/60/2008); assay: ELISA on coated recombinant HA, unpurified IgG

B1: FBC-39 FTS (antibody, V domains shown)
VH: [about 100 residues cut from this listing]DGPYSDDFRSGYAARYRYFGMDVWGQGTTVTVSS
VL: DIQMTQSPSSVSASVGDRVTITCRASQDISTWLAWYQQKPGKAPKLLIYAASSLQSGVPSRFSGSGSGTDFTLTISSLQPEDFATYYCQQANSFPPTFGQGTKLEIK
EC50 [1]: 0.026 mg/L | EC50 [2]: > 1 mg/L
